We go through 58 molecules from article PMC4336329 (PLoS ONE, 2015).

The whole screen tested about 310,000 compounds, of which about 2,200 (0.71%) showed an effect of 50% or more. Effects have a minus sign here. Some of the results follow.

human ether-à-go-go-related gene (hERG) potassium channel, sequence (Q12809 whole entry, looked up): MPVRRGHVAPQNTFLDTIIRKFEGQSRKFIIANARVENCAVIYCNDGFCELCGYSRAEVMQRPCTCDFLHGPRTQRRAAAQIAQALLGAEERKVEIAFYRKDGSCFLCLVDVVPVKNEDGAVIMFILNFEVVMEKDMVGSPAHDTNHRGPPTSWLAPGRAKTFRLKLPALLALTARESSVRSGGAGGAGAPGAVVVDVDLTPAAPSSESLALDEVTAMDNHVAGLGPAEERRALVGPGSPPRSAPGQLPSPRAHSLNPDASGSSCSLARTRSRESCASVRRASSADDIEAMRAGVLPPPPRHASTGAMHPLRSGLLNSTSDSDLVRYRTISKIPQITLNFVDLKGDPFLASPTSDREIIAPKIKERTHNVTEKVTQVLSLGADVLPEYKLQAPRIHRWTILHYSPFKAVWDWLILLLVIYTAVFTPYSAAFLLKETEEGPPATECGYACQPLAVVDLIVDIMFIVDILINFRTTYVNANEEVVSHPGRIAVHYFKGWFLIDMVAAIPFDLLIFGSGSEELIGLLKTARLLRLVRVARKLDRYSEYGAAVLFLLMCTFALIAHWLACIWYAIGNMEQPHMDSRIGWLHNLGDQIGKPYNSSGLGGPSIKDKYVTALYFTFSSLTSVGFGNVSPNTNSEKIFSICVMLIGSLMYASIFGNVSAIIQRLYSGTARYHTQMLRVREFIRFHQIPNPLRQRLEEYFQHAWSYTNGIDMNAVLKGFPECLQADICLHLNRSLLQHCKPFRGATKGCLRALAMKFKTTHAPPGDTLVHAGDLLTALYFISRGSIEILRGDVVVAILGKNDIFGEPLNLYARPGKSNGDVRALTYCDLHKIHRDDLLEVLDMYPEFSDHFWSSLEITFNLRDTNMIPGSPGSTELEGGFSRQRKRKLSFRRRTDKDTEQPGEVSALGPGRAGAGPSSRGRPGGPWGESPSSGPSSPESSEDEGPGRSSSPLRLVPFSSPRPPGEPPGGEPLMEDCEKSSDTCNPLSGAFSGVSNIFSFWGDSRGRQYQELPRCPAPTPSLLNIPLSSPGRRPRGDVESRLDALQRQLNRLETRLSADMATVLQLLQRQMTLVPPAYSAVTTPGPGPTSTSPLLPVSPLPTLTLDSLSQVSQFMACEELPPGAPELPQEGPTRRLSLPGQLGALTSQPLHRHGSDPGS

This assay concerns the target human ether-à-go-go-related gene (hERG) potassium channel (human, UniProt Q12809). Kind of assay: primary screen, population patch clamp on CHO cells stably expressing hERG.
On to `O=C1c2ccccc2S(=O)(=O)c2cc(C(=O)N3CCC(N4CCCC4)CC3)ccc21`, for which the “hERG current change (%, negative = inhibition) at 1uM” value is 9.9%.
Then `O=C(Cc1cccs1)NCc1cccc(C(F)(F)F)c1`, with 13.6%; and `Cc1cccc(C(=O)NC(=S)N2CCN(C(=S)NC(=O)c3cccc(C)c3)CC2)c1`, with 7.76%.
Turning to `O=C(COc1ccccc1)NCC1CCCO1` (stereo not shown), the “hERG current change (%, negative = inhibition) at 1uM” value is 12.8%.
As to `CS(=O)(=O)c1cccc(C(=O)NCc2ccc(F)cc2)c1`, the “hERG current change (%, negative = inhibition) at 1uM” value was 4.52%.
Then `O=C(NCCC1CC1(Cl)Cl)Nc1ccccc1` (stereo not shown), with 10.2%; and `COc1ccc(NC(=S)NCCC2=CCCCC2)cc1OC`, with 12.6%.
Consider `Cc1ccc2cccnc2c1NC(=S)NC(=O)c1ccccc1`, for which the “hERG current change (%, negative = inhibition) at 1uM” value is recorded as 14.9%.
Then `Cc1ccc(N2N=C(c3ccc(F)cc3)CC2c2ccco2)cc1` (stereo not shown), with 3.84%; and `Cc1c(NS(=O)(=O)c2cc(C(=O)OCC(=O)N3CCC(C)CC3)ccc2Cl)c(=O)n(-c2ccccc2)n1C`, with 7.72%.
For `O=C(N/N=C/c1ccccn1)c1ccc(NC(=O)c2ccc(F)cc2)cc1` the value was 9.84%; for `COc1ccc(OC)c(NC(=O)C(CC(C)C)NC(=O)C2CCCCC2)c1` (stereo not shown), 4.12%.
For `Cl.O=C(NCC(c1cccs1)N1CCOCC1)c1ccccc1NS(=O)(=O)c1cc([N+](=O)[O-])ccc1Cl` (stereo not shown) the value was -4.36%; for `CCc1sc(C(=O)NC2CCN(C)CC2)cc1Br`, 7.35%; for `N#C/C(=C\c1cccs1)C(=O)NCc1cccnc1`, -3.89%.
For `Cc1cccc(-n2c(Cc3ccccc3)nnc2SCC(=O)N2CCOCC2)c1`, the “hERG current change (%, negative = inhibition) at 1uM” value is reported as 7.32%.
Then `CCOc1ccc(OCC(=O)N2CCC3(CC2)CC(=O)c2ccccc2O3)cc1`, with -56.8%; and `Cc1cc(=O)oc2cc(N)ccc12`, with 2.83%.
For the molecule `COC(=O)c1ccc(COc2cccc3c2OC(C)(C)C3)cc1`, the “hERG current change (%, negative = inhibition) at 1uM” value was 19.2%.
Then `CC1(C)NC(=O)N(CC(O)CN2CCCCC2)C1=O` (stereo not shown), with 16.7%; and `CN(C/C=C/c1ccccc1[N+](=O)[O-])Cc1ccccc1`, with -8.37%.
For `C=CCn1c(SCC(=O)N(CC)C2CCS(=O)(=O)C2)nnc1-c1ccccc1` (stereo not shown) the value was 8.04%; for `CN(C(=O)C(C)(C)C)c1ccc(OCC(=O)N2CCc3ccccc3C2)cc1`, 3.93%; for `CC(=O)Nc1cccc(C(=O)Oc2cccc(C)c2)c1O`, 1.42%.
Then `CCNc1nc(NCC)n2c(SC(C(=O)Nc3cc(C)ccc3OC)c3ccccc3)nnc2n1` (stereo not shown), with 7.71%.
Turning to `O=C(O)COc1ccccc1/C=N/NC(=O)COc1ccc(-c2ccccc2)cc1`, the “hERG current change (%, negative = inhibition) at 1uM” value was 5.25%.
Then `O=C(NCCCn1ccnc1)c1noc2c1CCCC2`, with -13.4%; and `NC(=O)C1CCN(c2ccc(S(=O)(=O)N3CCC(Cc4ccccc4)CC3)cn2)CC1`, with 19.1%; and `CCN(CC)c1ccc(NC(=O)CNCc2ccccc2Cl)c(C)c1.O=C(O)C(=O)O`, with 7.25%.
Then `Cc1cc(=O)[nH]c(N/N=C/c2cc(C)n(CC(F)(F)F)c2C)n1`, with 11.9%; and `COc1cc2c(cc1OC)C(COc1ccc([N+](=O)[O-])cc1)N(C(C)=O)CC2` (stereo not shown), with -35.5%.
Then `CCSc1nc2sc3c(c2c(=O)n1CC)CCC3`, with 14%; and `CCN1CCN(C(=O)c2cnn3c(C(F)F)cc(-c4ccc(C)cc4)nc23)CC1`, with -3.12%; and `CCOC(=O)/C(C#N)=C\c1cc(OC)c(OC)cc1[N+](=O)[O-]`, with 17.1%.
Consider `Cc1c(CC(=O)NCCC(=O)O)c(=O)oc2cc3oc4c(c3cc12)CCCC4`, for which the “hERG current change (%, negative = inhibition) at 1uM” value was determined as 22.8%.
Then `COc1cccc(NC(=O)CN(C)C(=O)c2ccc(S(=O)(=O)Nc3ccccc3C)cc2)c1`, with 3.85%.
As to `Cc1cccc(N2C(=O)NC(=O)/C(=C\c3cccn3-c3ccc(Cl)cc3)C2=O)c1`, the “hERG current change (%, negative = inhibition) at 1uM” value is on record as 1.43%.
Take `O=C(COc1ccc(Cl)cc1Cl)NNC(=S)NC(=O)c1ccco1`: the “hERG current change (%, negative = inhibition) at 1uM” value amounted to 10.8%.
For `O=C(NCCN1CCOCC1)C1CCN(S(=O)(=O)N2CCCC2)CC1` the value was 11.7%.
For `CS(=O)(=O)c1ccc(N2CCN(c3ccccn3)CC2)c([N+](=O)[O-])c1` the value was -13.3%.
As to `CCC(C)NC(=O)c1csc2c1CCCCC2` (stereo not shown), the “hERG current change (%, negative = inhibition) at 1uM” value worked out at 16.1%.
In the case of `Clc1ccccc1OCCCCn1ccnc1`, the “hERG current change (%, negative = inhibition) at 1uM” value is 2.87%.
For `O=C(Cc1cccc2ccccc12)NCCc1ccccc1` the value was 11.1%; for `O=C(O)c1ccc2c(c1)C(=O)N(Cc1ccccc1)C2=O`, 4.17%.
Then `CCOc1ccccc1N/C(=C(/C(Cl)=C(Cl)Cl)[N+](=O)[O-])n1cncn1`, with 2.1%.
For `O=C(NN=C1CCCC1)C1COc2ccccc2O1` (stereo not shown) the value was 12.3%; for `COc1ccc2nc(-c3ccco3)c(-c3ccco3)nc2c1`, 13.7%.
In the case of `CC1CCC2(CC1)SCC(=O)N2c1ccc(F)cc1` (stereo not shown), the “hERG current change (%, negative = inhibition) at 1uM” value amounted to 9.6%.
With `Cc1nn(-c2ccccc2)c(C)c1C(=O)OCC(N)=O`, the “hERG current change (%, negative = inhibition) at 1uM” value stood at 12.2%.
Then `Cc1ccc(C(=O)ON=C2CCN(c3ccc([N+](=O)[O-])cc3)CC2)cc1`, with -21.2%; and `CCSC1=NCCN1C(=O)c1c(-c2ccccc2Cl)noc1C`, with 7.53%; and `O=C(c1ccc(Oc2cc(Cl)cc(Cl)c2)o1)N1CCCCC1`, with -3.92%.
Then `Cc1ccc(C2CC2c2n[nH]c(=S)n2-c2cccc(C)c2)cc1` (stereo not shown), with 11.4%; and `O=C(C1CCCN(S(=O)(=O)c2ccccc2[N+](=O)[O-])C1)N1CCCC1` (stereo not shown), with 3.58%; and `CCOC(=O)C1C(=O)OC2(CCCC2)C1C(=O)OCC` (stereo not shown), with -6.03%.
In the case of `Cc1cccn2cc(-c3ccc(S(=O)(=O)N4CCCCC4)cc3)nc12`, the “hERG current change (%, negative = inhibition) at 1uM” value was determined as 13.5%.
Then `CCOC(=O)c1ccc(-n2c(CCC(=O)O)ccc2-c2ccccc2)cc1`, with 9.49%; and `CC1(C)Cc2c(sc3nc(=S)[nH]c(N)c23)CO1`, with 17.6%.
